# From the supplement of paper PMC10338343
# ± gives the standard deviation. In all, about 5,500 sequences were measured (“pre-steady-state target cleavage rate”: median about 0.1, highest 2% from about 0.64 on). The entries are a selection whose mix differs from that of the whole data set.
# Tested on: MIWI (PIWIL1) piRISC loaded with piRNA #2 (30 nt)
# Assay: pre-steady-state target cleavage rate (min^-1); MIWI and MILI are mouse PIWI proteins and EfPiwi is from a freshwater sponge; tags in brackets are library labels; higher = faster piRNA-guided slicing of the target
# Settings: guide: piRNA #2 5'p-UUAGGUAACCCAGUAGAUCCAGAGGAAUUC; auxiliary factor: 500 nM mouse GTSF1
# Outline: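 The pre-steady-state cleavage rate was derived from a burst-and-steady-state fit of Cleave-'n-Seq data. For these assays, 1 nM active affinity-purified piRISC loaded with a single synthetic guide was mixed with […] a transcribed, DNA-blocked target RNA library in HEPES–potassium acetate buffer at 33 °C, with or without 500 nM GTSF1 partner protein, for 0–8 or 0–960 min. Sequencing counts of uncleaved targets were normalised to depth and to weakly complementary targets, and k3 was capped at 0.0001 min^-1 after three trials were pooled.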
row,Sequence,pre-steady-state target cleavage rate
1,CUUAAGGUCUGGAACUACUGGGAUACCUAA,0.0646 ± 0.025
2,CUUAUCGUCUGGAUGUACUGGGUUACCUAA,0.051 ± 0.034
3,GAUUACCUCUGGAUCUACUGGGUUACCUAA,0.104 ± 0.026
4,CUUAUCCUCUGGUUGUACUGGGUUACCUAA,0.377 ± 0.025
5,GUAAUCCUCUGGAUCUACUGGGUUACCUAA,0.15 ± 0.045
6,CUUAAGGACUGGAUCUACUGGGUUACGAAA,0.0347 ± 0.03
7,CUUAACCUCUGCAUCUACUGGGAUACCUAA,0.0864 ± 0.0093
8,CUUAUCCUCUGGAUCUACUGGGUUUCCAAA,0.166 ± 0.049
9,CUUAACCUCUGGAUCUACAGGGUUACCUAA,0.18 ± 0.019
10,CUAUUCCUCUGGAUCAUCUGGGUUACCUAA,0.341 ± 0.038
11,CUUUUCCUCUCGAUCUUCUGGGUUACCUAA,0.63 ± 0.051
12,GAAUUCCUCUGUAUCUACUGGGUUACCUAA,0.355 ± 0.049
13,CUUAAGCUCUGGAUCUACUGGGUUACUCUAA,0.105 ± 0.017
14,CUUAAGGUGUGGAUCUACUCGGUUACCUAA,0.0184 ± 0.0089
15,CUUUUCCUCUGGACUCUACUGGGUUACCUAA,0.186 ± 0.023
16,CUUAAGGACUGGAACUACUGGGUUACCUUA,0.0308 ± 0.028
17,CUUAAGGUCUGGAUCUACUGCGUUACCUUA,0.138 ± 0.024
18,CUUAAGCUCUGGAUACUACUGGGUUACCUAA,0.0649 ± 0.015
19,CUAUUCCUCUGGAUCUACUCGGUUACGUAA,0.107 ± 0.042
20,CUUUUCCUACUGGAUCUACUGGGUUACCUAA,0.532 ± 0.051
21,GUAUUCCUCUGGAACUACUGGGUUACCUAA,0.0564 ± 0.03
22,CUAUUCCUCUGGAACUACUGGGUUUCCUAA,0.337 ± 0.12
23,CUUAAGGUCUGGAUCUACUGGGUUGCCUAA,0.218 ± 0.023
24,CUAUUCCUCUGGAUCGUACUGGGUUACCUAA,0.0062 ± 0.0047

row,Sequence,pre-steady-state target cleavage rate
1,CUUAAGCUCUGGACUACUGGGUUACCUAA,0.0641 ± 0.011
2,CUUUUCCUCAGGAUCUACUCGGUUACCUAA,0.0989 ± 0.022
3,CUAUUCCUCUGGAUCUACUGGGAUACCUAA,0.286 ± 0.035
4,GAAUUCCUCUGCAUCUACUGGGUUACCAAA,0.374 ± 0.044
5,CUUAAGCUCUGGAUCAACUGGGUUACCUUA,0.0594 ± 0.0094
6,CUUAACCUCUGGAUCAACUGGGUUACCAAA,0.191 ± 0.032
7,GAAUUCCUCUGGAAGAACUGGGUUACCUAA,0.147 ± 0.035
8,CUUAAGGUCUGGUUCUACUGGGAUACCUAA,0.0504 ± 0.011
9,GAAUUACUCUGGAUCUACUGGGUUACCUAA,0.0507 ± 0.02
10,CUUAUCGUCUGGAUCUACUCGGUUACCUAA,0.0341 ± 0.023
11,CUUAUCCUCUGGAUCUACUGGGAUACCUAA,0.302 ± 0.039
12,CUUAAGCUCUGGAUCUACUGGGUUACCAA,0.1 ± 0.012
13,CUUAUCCUCAGGAUCUACUGGGUUUCCUAA,0.353 ± 0.062
14,GAAUUCCUCUGGAUCAACUGGGUUAGCUAA,0.306 ± 0.039
15,CUUAAGGAGUGGUUCUAGUGGGUUACCUAA,0.00357 ± 0.0023
16,CAAUUCCUCUGGUUCUACAGGGUUACCUAA,0.424 ± 0.037
17,CUAUGUCCUCUGGAUCUACUGGGUUACCUAA,0.0967 ± 0.026
18,CUUAUCCUCUGGUUCUUCUGGGUUACCUAA,0.308 ± 0.032
19,CUUAAGGUCUGGAUCUACUGGGUUACUCUAA,0.131 ± 0.032
20,CUUAUCCUCUGGAUCUACUGGGUUACCUUA,0.342 ± 0.056
21,CUUAAGGUCUGGAUCUACUGGGUUACCUCA,0.198 ± 0.035
22,CUUAUCCACUGGAUCUACUGGGUUACCUAA,0.495 ± 0.043
23,GAAUUCCUGUGCAUCUACUGGGUUACCUAA,0.435 ± 0.029
24,CUUAACGUCUCGAUCUACUGGGUUACCUAA,0.357 ± 0.041

row,Sequence,pre-steady-state target cleavage rate
1,CUUUUCCUCUGGAACUACUGGGUUACCAAA,0.19 ± 0.034
2,GAAUUCCUCUGGAUCUACUCGGUUACCAAA,0.147 ± 0.036
3,CUUAACCUGUCGAUCUACUGGGUUACCUAA,0.367 ± 0.036
4,CUUAUCCUCUGGAUGUACUGGGUUACCAAA,0.329 ± 0.054
5,CUUAACCUCUGGAUCUACUCGCUUACCUAA,0.00558 ± 0.0032
6,CUUAACCUCUGCAUCUACUGCGUUACCUAA,0.458 ± 0.041
7,CUAUUCCUCUGGAACUACUGCGUUACCUAA,0.281 ± 0.038
8,CUUAUCCUCUGGAACUACUGGGUUUCCUAA,0.144 ± 0.046
9,CUUAAGCUCUGGAUCUACUGGGUUACCAUA,0.157 ± 0.025
10,CUUAAGGUCUCGAACUACUGGGUUACCUAA,0.0183 ± 0.014
11,CUUAAGGAGACCUAGUACUGGCGUUACCUAA,0.00873 ± 0.0013
12,CUUAUCCUCUGCAUCUACUGGGUUUCCUAA,0.0491 ± 0.015
13,CUUAAGCUCUGGAUCAACUCGGUUACCUAA,0.0285 ± 0.011
14,GAAUUCCUCUCGAUCUACUGGGUUACCUUA,0.629 ± 0.069
15,CUAUUCCUCUAGGAUCUACUGGGUUACCUAA,0.278 ± 0.041
16,CUUUUCCUCUCGAUCUACUGGGUUUCCUAA,0.509 ± 0.058
17,CUUAAGGUCUCGAUCUACUGGGUUACCUAA,0.216 ± 0.024
18,CUUAAGGAGAGGAUCUACUGGCGUUACCUAA,0.00502 ± 0.0044
19,CUUAAGGAGAAGAUCUACUGGGUUACCUAA,0.00849 ± 0.0034
20,CAAUUCCUCUGGAUCUACUGGGUUAGGUAA,0.114 ± 0.042
21,CUAUUCGUCUGCAUCUACUGGGUUACCUAA,0.523 ± 0.036
22,GAAUUCGUCUGGAACUACUGGGUUACCUAA,0.456 ± 0.046
23,CUUAACCUCUGGAUCAUCUGGGUUACCUAA,0.155 ± 0.013
24,CUUAUCGUCUGGAUCUACUGGGUUACCUAA,0.344 ± 0.053
